# Test results as given in PubChem BioAssay AID1346428 (National Center for Advancing Translational Sciences (NCATS), 2018).
# Where “and” joins values, the source holds several entries; their conditions need not be identical. Equal entries are not always repeated. About 1,200 (2.5%) of roughly 48,000 compounds were called active. Inconclusive results (about 2%) are left out.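 The calls were made as follows: active = activation of at least 60% and not above a set upper limit (about 1 call in 100 departs from these limits); inconclusive = activation of 40% to 60%, or above that upper limit; inactive = activation under 40%.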 The list shows a part of the results.
# Biological target: Probable G-protein coupled receptor 32 (Homo sapiens) (UniProt O75388)
# Sequence of UniProt O75388 (O75388 whole entry, looked up): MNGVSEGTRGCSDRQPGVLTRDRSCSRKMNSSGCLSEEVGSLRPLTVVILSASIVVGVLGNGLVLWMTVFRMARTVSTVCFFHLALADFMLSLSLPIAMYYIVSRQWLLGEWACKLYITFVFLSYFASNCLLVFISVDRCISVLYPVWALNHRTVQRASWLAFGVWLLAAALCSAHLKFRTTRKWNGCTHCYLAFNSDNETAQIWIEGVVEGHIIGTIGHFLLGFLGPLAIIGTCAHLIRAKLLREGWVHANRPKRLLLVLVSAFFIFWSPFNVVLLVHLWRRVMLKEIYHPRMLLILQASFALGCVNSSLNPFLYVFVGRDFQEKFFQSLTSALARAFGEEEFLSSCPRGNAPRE
# Test: qHTS for Agonists of Human Resolvin D1 Receptor DRV1
# Settings: CHO-K1 GPR32 beta-arrestin PathHunter luminescence, 90 min; at 76.9 µM; stronger effect = higher value; zero percent set by DMSO-only wells
# Method in brief: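 Using DMSO wells as EC0, agonist-induced signal was taken as chemiluminescence from beta-Gal reconstituted upon beta-arrestin recruitment to GPR32 in CHO-K1 cells after 90 min compound treatment.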
row,Compound,activation
1,COc1ccc(CNc2nc3c(-c4ccc(C)cc4)nnn3c3ccccc23)cc1,inactive: 26.3%
2,Fc1ccccc1N1CCN(c2ncnc3c2nc2n3CCCCC2)CC1,inactive: 44.3%
3,COc1ccc(C2C(=O)N(C3CCC(C)CC3)CC(=O)N2C2CCCCC2)cc1OC (centres undefined),inactive: -5.16%
4,CCCS(=O)(=O)NCCc1csc2nc(-c3ccc(C)cc3)nn12,inactive: -8.45%
5,CCOC(=O)c1cc2c(=O)n3ccccc3nc2n(CCCOC)c1=NC(=O)c1c(-c2ccccc2Cl)noc1C,inactive: -19.9%
6,Cc1nc2nc(C)c(NS(=O)(=O)c3ccc(F)cc3)c(=O)n2[nH]1,inactive: 18.7%
7,Cc1ccccc1OCCCn1c(CCNC(=O)C2CCCCC2)nc2ccccc21,inactive: -20.3%
8,O=C(Cn1cnc(S(=O)(=O)N2CCCC2)c1)Nc1cccc(F)c1,inactive: 4.24%
9,CCOc1ccc(NC(=O)C2CCCN(c3nn4cc(-c5ccc(OC)cc5)nc4s3)C2)cc1 (centres undefined),inactive: -3.91%
10,Cc1ccc(NC(=O)c2sc3nc4n(c(=O)c3c2C)CCCCC4)c(Br)c1,inactive: -14.4%
11,CN(C(=O)Cn1c(=O)n(CCC(=O)NCc2ccc3c(c2)OCO3)c(=O)c2sccc21)c1ccccc1,inactive: -15%
12,Cc1ccc(-n2ncc(C(=O)N3CCN(C4CCCCC4)CC3)c2C2CCN(C(=O)OC(C)(C)C)CC2)cc1C,inactive: -14.5%
13,COc1ccc(N2C(=O)CSC23C(=O)N(Cc2ccccc2F)c2ccccc23)cc1Cl (centres undefined),inactive: -19%
14,O=S(=O)(NCc1ccccc1Cl)c1ccc(-c2cnc(C3CC3)o2)cc1,inactive: 0.997%
15,CCC1=Nc2cc(C(=O)NCc3ccccc3OC)ccc2Sc2ccc(Cl)cc21,inactive: -31.9%
16,COc1ccc(-c2cn3cccnc3n2)cc1NC(=O)COc1ccccc1,inactive: 10%
17,Cc1c(CC(=O)N2CCCCC2)c(=O)oc2cc3occ(C(C)(C)C)c3cc12,inactive: -2.33%
18,CN1CCN(C(c2ccc(Cl)cc2Cl)c2sc3nc(-c4ccco4)nn3c2O)CC1 (centres undefined),inactive: -2.91%
19,Cn1nc(C(=O)NCc2cccc(Cl)c2)c2c1-c1ccccc1SC2,inactive: -15.6%
20,COCCNc1ncnc2c1cnn2-c1cc(Cl)ccc1C,inactive: 37.4%
21,Cc1cc(C)c2c(n1)SCC(=O)N2CC(=O)Nc1ccc(C)c(C)c1,inactive: 0.748%
22,Cc1ccc(OCC(=O)Nc2ccc(OCc3cc(=O)n4ccsc4n3)cc2)cc1,inactive: -18.9%
23,CCC(=O)N1c2ccccc2CC1C(=O)NCCc1ccccc1Cl (centres undefined),inactive: 7.87%
24,Cc1ccc(S(=O)(=O)C2(C(=O)Nc3ccc(C)c(Cl)c3)CC2)cc1,inactive: -11.8%
25,COc1ccc(N2CCN(c3ncnc4c3cnn4-c3ccc(C)c(Cl)c3)CC2)cc1,inactive: 24.6%
26,CC(C)(C)C(=O)NC1(C(F)(F)F)NC(=O)N(c2ccc(F)cc2)C1=O (centres undefined),inactive: -5.46%
27,Cc1ccc(Cl)cc1N1CCN(C(=O)CN2C(=O)COc3ccc(S(=O)(=O)N4CCC(C)CC4)cc32)CC1,inactive: -15.3%

row,Compound,activation
1,CC1=C(c2ccc(C)cc2)S(=O)(=O)NC1=NCCCN1CCN(c2cc(C)ccc2C)CC1,active: 84.3%
2,Cc1ccc(CNC(=O)CCS(=O)(=O)c2cc3c(cc2Cl)NC(=O)CO3)cc1,inactive: -3.49%
3,O=C(NCc1ccc(Cl)cc1)c1ccc(NC(=O)N2CC3CCCN3c3ccccc32)cc1 (centres undefined),inactive: -32.8%
4,CCOC(=O)C1CCN(C(=O)Cn2c(-c3cccs3)cc3cc(Cl)ccc32)CC1,inactive: -12.8%
5,CCOC(=O)CN(Cc1ccccc1)C(C(=O)NC1CCCCC1)c1ccc(C)cc1 (centres undefined),inactive: -7.31%
6,Cc1c(C(=O)NCc2ccccc2Cl)sc2nc(-c3ccc(F)cc3)cn12,inactive: -15.9%
7,O=C(NCc1ccc(F)cc1)c1cc(Sc2ccc(F)cc2F)nc2ccccc12,inactive: -33.7%
8,COc1ccc(CNC(=O)c2ccc(-c3nc(CSc4ccc(C)cc4)c(C)o3)cc2)cc1OC,inactive: -6.35%
9,Cc1nn(C(=O)c2ccccc2)c(C)c1S(=O)(=O)N1CCOCC1,inactive: 12.2%
10,CCC(=O)N1CCc2cc(S(=O)(=O)NC(C(=O)NCc3ccccc3Cl)C(C)C)ccc21 (centres undefined),inactive: -9.52%
11,CCOc1ccccc1CNS(=O)(=O)c1ccc2c(c1)C(C)(C)C(=O)N2C,inactive: 2.24%
12,CN(C(=O)CSc1nc2ccc(NC(=O)c3ccccc3F)cc2s1)c1ccccc1,inactive: -10.8%
13,C[N+](C)(C)CCOC(N)=O,inactive: -6.54% and inactive: 2.21%
14,Cc1ccc(CNC(=O)c2cccc(N3CCCS3(=O)=O)c2)cc1,inactive: 36.6%
15,COC(=O)c1cccc(NC(=O)N(C)CCc2c(C)nn(C)c2C)c1,inactive: -2.2%
16,CCc1ccc(-n2nc3ccc(NC(=O)c4cc(Cl)c(OC)c(Cl)c4)cc3n2)cc1,inactive: -6.04%
17,CCOc1ccc(C2C(=O)N(C3CCCCCC3)CC(=O)N2CCC2=CCCCC2)cc1OC (centres undefined),inactive: -35.2%
18,Cc1ccc(NC(=O)CN(CCc2ccccc2)S(=O)(=O)c2ccccc2)c(C)c1,inactive: 10.3%
19,CCOc1ccc(CNC(=O)Cn2nc(C)n3cccc3c2=O)cc1,inactive: -8.88%
20,CCCCn1cc(S(=O)(=O)c2ccc(OCC)cc2)c(=O)c2cc(OC)c(OC)cc21,inactive: -26%
21,CCOc1ccc(N2CC(C)Cn3c2nc2c3c(=O)n(CC(=O)O)c(=O)n2C)cc1 (centres undefined),inactive: 4.78%
22,COc1cc(N2C(=O)CSC23C(=O)N(C)c2ccccc23)cc(OC)c1OC (centres undefined),inactive: 1.13%
23,Cc1ccc(CNC(=O)Cn2c(=O)n(Cc3ccccc3)c(=O)c3c2c2cc(C)ccc2n3C)cc1,inactive: 0.279%
24,COc1ccc(CN2CCc3nc(Nc4ccccc4)ncc3C2)c(OC)c1OC,inactive: -16.1%
25,Cc1cc(C)cc(NC(=O)C(=O)NCC(c2ccc3c(c2)OCO3)N2CCOCC2)c1 (centres undefined),inactive: -14.6%
26,COCCN1Cc2cccc(C(=O)Nc3ccc(C)c(F)c3)c2C1=O,inactive: 0.358%
27,Fc1ccc(-c2cc(-c3nc(-c4ccccc4)no3)[nH]n2)cc1,inactive: -9.26%
